Test results as given in the supplement of paper PMC11060735.
The campaign covered roughly 1,800 compounds. About 50 (3%) showed activity. Some of the results follow.

test system: mouse p16Ink4a+/- lung fibroblasts (INKBRITE, bleomycin-injured); assay: percentage of GFP+ (p16Ink4a+) fibroblasts among all cells in well; higher = less depletion of p16Ink4a+ cells, active = 20 or less; conditions: 1 µM; 3 days
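Note: fibroblasts sorted 14 days after bleomycin, GFP+ and GFP− mixed 1:1 in 384-well plates (GFP− as in-well control), imaged after Hoechst and NucView530 staining, reference wells lacked compound.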

| Structure (SMILES) | percentage of GFP+ |
| --- | --- |
| COc1cc(C=O)ccc1O [Vanillin] | inactive: 37.7% |
| CN1CCN(C2CCN(C(=O)Nc3cc(Oc4ccc(NC(=O)C5(C(=O)Nc6ccc(F)cc6)CC5)c(F)c4)ccn3)CC2)CC1 [Golvatinib] | inactive: 39.3% |
| C[C@@H]1O[C@@H](OC[C@H]2O[C@@H](Oc3c(-c4ccc(OCCO)c(OCCO)c4)oc4cc(OCCO)cc(O)c4c3=O)[C@H](O)[C@@H](O)[C@@H]2O)[C@H](O)[C@H](O)[C@H]1O [Troxerutin] | inactive: 40.2% |
| C[C@@H](NCCCc1cccc(C(F)(F)F)c1)c1cccc2ccccc12 [Cinacalcet] | inactive: 33.2% |
| CC(=O)N[C@H]1[C@H]([C@H](O)[C@H](O)CO)OC(C(=O)O)=C[C@@H]1NC(=N)N [Zanamivir] | inactive: 53.1% |
| Cc1ccc(CNc2ncnc3ccc(-c4ccc(CO)o4)cc23)o1 | inactive: 50.9% |
| [NH2][Pt]([NH2])([Cl])[Cl] [Cisplatin] | inactive: 42.1% |
| CC1(C)O[C@@H]2C[C@H]3[C@@H]4CCC5=CC(=O)C=C[C@]5(C)[C@@]4(F)[C@@H](O)C[C@]3(C)[C@]2(C(=O)CO)O1 [Triamcinolone Acetonide] | inactive: 34.4% |
| COc1cc2nccc(Oc3ccc(NC(=O)Nc4ccc(F)cc4F)c(F)c3)c2cc1OC | inactive: 45.2% |
| CC[C@H]1OC(=O)[C@H](C)[C@@H](O[C@H]2C[C@@](C)(OC)[C@@H](O)[C@H](C)O2)[C@H](C)[C@@H](O[C@H]2O[C@H](C)C[C@H](N(C)C)[C@H]2O)[C@](C)(O)C[C@@H](C)CN(C)[C@H](C)[C@@H](O)[C@]1(C)O [Azithromycin] | inactive: 49.7% |
| O=C1C(O)=C(O)O[C@@H]1[C@@H](O)CO [Vitamin C] | inactive: 41.1% |
| COc1cc2c(cc1OC)-c1cc3ccc(OC)c(OC)c3c[n+]1CC2 [Palmatine] | inactive: 45.3% |
| NC(=O)N1CCC(CC(=O)N2CCC([C@H]3c4ncc(Br)cc4CCc4cc(Cl)cc(Br)c43)CC2)CC1 [Lonafarnib] | inactive: 47.5% |
| CC(C[N+](C)(C)C)OC(N)=O (configuration not stated) [Bethanechol] | inactive: 43.5% |
| CC1(C)CNc2cc(NC(=O)c3cccnc3NCc3ccncc3)ccc21 [Motesanib Diphosphate] | inactive: 25.1% |
| O=S(=O)(O)Oc1ccc(C(c2ccc(OS(=O)(=O)O)cc2)c2ccccn2)cc1 [Picosulfuric acid] | inactive: 48.4% |
| OC[C@H]1O[C@@H](OCCc2ccc(O)cc2)[C@H](O)[C@@H](O)[C@@H]1O [Salidroside] | inactive: 36.3% |
